Some of the results follow. At the low end of the ranking the order means little.

Binding signal data for 172 sequences are collected here from PMC10668032.

The target in this test is SIX1-Q177R homeodomain (UniProt Q15475). Nature of the test: universal protein binding microarray. As to conditions: Universal all-10-mer PBM (8x60K, AMADID 030236), 300 nM GST-tagged protein, Alexa Fluor 488 anti-GST; buffer, salt, pH and temperature not stated; high values mean tight binding; most listed sequences are background and not binding sites; double strand, one strand shown.
Turning to ACCATTTG, the binding signal is 0.0664 E-score.

Regarding ATGCTCAG, the binding signal was -0.192 E-score. Turning to CTTCTAAC, the binding signal was -0.0205 E-score. As to ATAACCTC, the binding signal is -0.0498 E-score. GTCCCGAC: the binding signal came to 0.0284 E-score. Take CATCCACG: the binding signal was -0.0627 E-score.

CCCGGTTA: the binding signal came to 0.0483 E-score. In the case of AGGTATGC it was -0.0237 E-score; in that of GTTTTAAA, -0.0963 E-score; in that of GTACATCA, 0.0697 E-score. In the case of AGATAGTG, the binding signal is 0.0652 E-score. In the case of ATATGTAA, the binding signal is -0.227 E-score. As for TCACCGCA, the binding signal was -0.0456 E-score. Take ATAGCTGG: the binding signal was -0.108 E-score. Regarding GCAGATTA, the binding signal is -0.128 E-score. As for ATAATGTC, the figure is 0.00056 E-score. As for GGATTATA, the figure is -0.00877 E-score; as for CGAAGCAG, -0.0995 E-score; as for AGAGCCCG, -0.124 E-score. On to CCGTTGTA, for which the binding signal is -0.157 E-score.

As to CACTGCTG, the binding signal was found to be 0.0496 E-score. On to CAATGCCG, for which the binding signal was -0.146 E-score.

As for ACCCTCTC, the binding signal came to 0.164 E-score. With GATCGGAC, the binding signal was -0.174 E-score. Turning to ACAAGTCT, the binding signal is -0.239 E-score. In the case of ATAAAGAG it was 0.0902 E-score; in that of AAACACGG, 0.349 E-score. Consider CAGAGAGG, for which the binding signal is -0.0662 E-score.

Turning to ATCGATGG, the binding signal is -0.189 E-score. Regarding GAAGGAAC, the binding signal is -0.0244 E-score.

Consider ACGAGCCC, for which the binding signal came out at 0.0769 E-score. As for TCACTTAA, the figure is -0.124 E-score; as for CCGATTTC, -0.303 E-score; as for ATTCGCAC, 0.0617 E-score.

ATATCACC: the binding signal came to 0.0333 E-score. Turning to ACATCCAT, the binding signal was -0.223 E-score. Turning to GATCATAC, the binding signal turned out to be 0.144 E-score. Consider ACGCATTG, for which the binding signal turned out to be 0.0238 E-score. In the case of CCTACGTA it was -0.172 E-score; in that of ATGTATAA, -0.0407 E-score; in that of GGGAACTA, -0.0323 E-score. On to ATGTGGCC, for which the binding signal was -0.237 E-score. In the case of ACACTACC it was 0.421 E-score; in that of TCTCAGAA, -0.196 E-score. For AGTAGCTA, the binding signal was -0.0926 E-score. Consider CAGTACGG, for which the binding signal is -0.0411 E-score. For AGATCTAT, the binding signal was -0.108 E-score. Turning to ATTAGGGC, the binding signal is -0.206 E-score.

Take ATAGATCA: the binding signal was -0.167 E-score. In the case of ATGTTCAA it was -0.204 E-score; in that of GCCGCTAC, -0.0679 E-score; in that of AAGGCAGT, -0.216 E-score. ATACAAGG: the binding signal is -0.0921 E-score.

As to CTACATGA, the binding signal was -0.0286 E-score. For AGGCACAT, the binding signal is -0.312 E-score. In the case of AGTGTGAT it was 0.223 E-score; in that of CCGAGCCC, -0.104 E-score.

ATGTTAGC: the binding signal is -0.118 E-score.

On to GTAACTAA, for which the binding signal was determined as 0.0533 E-score. In the case of ACGTCGGA, the binding signal is 0.032 E-score. Consider GAACTGGC, for which the binding signal was -0.357 E-score. ATTATTTA: the binding signal is -0.169 E-score.

Take TATCCACA: the binding signal was determined as 0.0551 E-score.

On to GAAAACAC, for which the binding signal came out at 0.383 E-score. Regarding GATAGCGC, the binding signal was -0.158 E-score. As for CTCTAGTC, the figure is -0.182 E-score; as for CATCTTTA, 0.00882 E-score; as for ATTGATCC, 0.187 E-score. With GGAACTGA, the binding signal was -0.151 E-score. ACAGGATA: the binding signal was -0.0109 E-score.

Regarding GACTGCGA, the binding signal is -0.13 E-score. For the sequence TTATCGAA, the binding signal is -0.087 E-score. As for CGGGCCAC, the binding signal was -0.149 E-score. On to ATCTCCTG, for which the binding signal is -0.0623 E-score. As for GTGTACCA, the binding signal was found to be 0.445 E-score. With AGAAAAAA, the binding signal is -0.284 E-score. Take AAAGCTAA: the binding signal is -0.199 E-score. As for TAGCCTAA, the figure is -0.0549 E-score; as for CACAGATA, 0.155 E-score. Consider CACGGCCA, for which the binding signal was determined as 0.124 E-score. For GATTATCA, the binding signal is 0.0233 E-score. In the case of ATTCTAAA it was -0.164 E-score; in that of AGGTAAGG, -0.176 E-score.

AGTCGCAC: the binding signal was 0.0893 E-score. For ATACATGC, the binding signal is -0.0223 E-score.

As for ACACGTCA, the binding signal worked out at 0.323 E-score. As to CCCGACCG, the binding signal worked out at 0.0803 E-score.

On to AGCAACAC, for which the binding signal amounted to 0.361 E-score. Turning to AACCGAAC, the binding signal was -0.0129 E-score. With GTACGCCA, the binding signal came out at 0.147 E-score. As to CAACTGCC, the binding signal was -0.309 E-score. As to ACGGTGCG, the binding signal amounted to 0.167 E-score.

As to GACGGACA, the binding signal is 0.112 E-score.

Consider CCCGCGAA, for which the binding signal was 0.132 E-score. As for AGGCAAGC, the figure is -0.193 E-score; as for CCAGCTGG, 0.263 E-score; as for AAACAGAC, -0.27 E-score. In the case of CGACCTGC it was -0.163 E-score.

Consider AGGGATCC, for which the binding signal amounted to 0.212 E-score. Consider ATGCTCCA, for which the binding signal was -0.124 E-score. Take ATTTGTGC: the binding signal is -0.232 E-score. Consider ATGGGGGG, for which the binding signal was 0.153 E-score. As for AAGTGTAC, the binding signal turned out to be 0.391 E-score. As for AGCTCGAC, the figure is -0.284 E-score.

On to CTCCTAAG, for which the binding signal is -0.00275 E-score.

Consider ACCTACGA, for which the binding signal turned out to be 0.0887 E-score. ATAAAATC: the binding signal is -0.151 E-score. For ACTCATTA, the binding signal was -0.123 E-score. In the case of GTAATGGA it was 0.0835 E-score; in that of GAATCGCA, -0.0637 E-score; in that of CACCGAAG, 0.283 E-score. As for CAATGCTA, the figure is -0.235 E-score. Regarding ACATTGGT, the binding signal is -0.188 E-score.

In the case of AGACGCAC, the binding signal worked out at 0.0355 E-score. Consider ATTGTCTA, for which the binding signal is -0.0366 E-score.

As for CGAAAAAA, the binding signal was -0.133 E-score.

GGCTCAAA: the binding signal is -0.142 E-score. For the sequence AGACTTAT, the binding signal is -0.267 E-score. For AATAATGA, the binding signal was -0.0786 E-score. Take CGCACATA: the binding signal is -0.047 E-score. As to CGACTCCC, the binding signal was 0.263 E-score.

On to GAGAGTGC, for which the binding signal is 0.1 E-score.

Consider TAGGCCGA, for which the binding signal was -0.063 E-score.

On to ACGAGGGG, for which the binding signal came out at 0.208 E-score. Take CGCGGACG: the binding signal is -0.176 E-score.

Turning to CAAGTGAG, the binding signal is -0.0897 E-score. In the case of GCTTGGCC it was -0.18 E-score; in that of ATTGACAA, -0.193 E-score. As for AAGCGCTA, the figure is -0.144 E-score; as for ACGATTCC, 0.124 E-score. As to CACCTAGA, the binding signal is 0.276 E-score.

Consider AGACGCTC, for which the binding signal was -0.19 E-score. As for CCTCAGTC, the figure is -0.274 E-score. As for AAATAACA, the figure is 0.143 E-score.

Take CCGAATAA: the binding signal stood at 0.0822 E-score. For ATAGACTG, the binding signal was -0.247 E-score. As for CGGCTCGA, the figure is 0.0325 E-score; as for ATGGAGCA, -0.0865 E-score; as for AACTAAAT, -0.0976 E-score. On to GACCTCGA, for which the binding signal is -0.0536 E-score. As for ATACTGGC, the binding signal is -0.032 E-score. As for GTTTACAA, the binding signal is -0.028 E-score. AATCGGGA: the binding signal is -0.0709 E-score. As to CATAGATG, the binding signal is -0.115 E-score. Take ACACGACT: the binding signal worked out at 0.411 E-score. As for ACTTCGAA, the binding signal was -0.263 E-score. As for GGCCCCCC, the binding signal was -0.103 E-score. In the case of ATGGCAAC, the binding signal was -0.199 E-score. Consider CTTTAGGA, for which the binding signal is -0.213 E-score. In the case of GCGCCACA it was -0.0245 E-score. CCTCAGCG: the binding signal was 0.00288 E-score.

Turning to GAGGTCCC, the binding signal is -0.293 E-score. As for GGCCTTAC, the figure is -0.213 E-score; as for ACCGCGTC, 0.0164 E-score; as for CCCGAGTA, 0.167 E-score. As for CGTGTTGC, the figure is 0.333 E-score; as for AAACGGCA, 0.0627 E-score; as for GCGCTAGA, -0.00604 E-score.

For GTCCGATA, the binding signal was -0.00404 E-score. Take AAGGTACA: the binding signal was found to be 0.122 E-score. As for CAGGTTAC, the figure is -0.0373 E-score; as for GTCCTACA, 0.243 E-score; as for GACATCTC, -0.0724 E-score. In the case of ATAGACAG it was -0.187 E-score.

As to GAACCCGA, the binding signal turned out to be 0.112 E-score. In the case of AAACACAG it was 0.0607 E-score; in that of ACAGTGAA, 0.0269 E-score.

In the case of ATCGTGGG, the binding signal is -0.124 E-score. As for CGGGGGCA, the figure is 0.0198 E-score; as for CTTCCACA, -0.124 E-score; as for ATGGTATG, -0.0622 E-score. In the case of AGGACGTG, the binding signal came out at 0.0793 E-score.
